The compounds below were run on HCV RNA replicon ET (luc-ubi-neo/ET) (assay: microbe, parasite or virus in culture). Details: not given.
Excerpt: The cell line ET (luc-ubi-neo/ET), a new HCV RNA replicon that contains a stable luciferase (LUC) reporter, was used. The composition of the replicon is shown diagrammatically above (ref, Krieger, N., V. Lohmann, and R. Bartenschlager. 2001. Enhancement of hepatitis C virus RNA replicon replication by cell culture-adaptive mutations. J. Virol. 75:4614-4624). The HCV RNA replicon ET contains the 5′ NTR (IRES) of HCV (5′) which drives the production of a firefly luciferase (Luc), ubiquitin (Ubiq), and neomycin phosphotransferase (Neo) fusion protein. Ubiquitin cleavage releases the LUC and Neo genes. The EMCV IRES element (E-I) controls the translation of the HCV structural proteins NS3-NS5.
The NS3 protein cleaves the HCV polyprotein to release the mature NS3, NS4A, NS4B, NS5A and NS5B proteins that are required for HCV replication. At the 3′ end of the replicon is the authentic 3′ NTR of HCV. The LUC reporter is used as an indirect measure of HCV replication. The activity of the LUC reporter is directly proportional to HCV RNA levels and positive control antiviral compounds behave comparably using either LUC or RNA endpoints. The use of the LUC endpoint is more economical than HCV RNA and can be used for high-throughput applications to screen libraries of compounds.

SMILES | Anti-Hepatitis Activity (Replicon Assay) Selectivity Index
Fc1ccc2c(c1)COB2c1cccc(Cl)c1 [Compound 11, 1-(3-Chlorophenyl)-5-fluoro-1,3-dihydrobenzo[c][1,2]oxaborole] | 1.5
Clc1cccc(B2OCc3ccccc32)c1 [Compound 12, 1-(3-Chlorophenyl)-1,3-dihydrobenzo[c][1,2]oxaborole] | 2.4
Fc1cccc(B2OCc3cc(Cl)ccc32)c1 [Compound 13, 5-Chloro-1-(3-Fluorophenyl)-1,3-dihydrobenzo[c][1,2]oxaborole] | 11
N#Cc1cccc(B2OCc3ccccc32)c1 [Compound 14, 3-(Benzo[c][1,2]oxaborol-1(3H)-yl)benzonitrile] | 2.5
Fc1ccc2c(c1)B(c1cccc(Cl)c1)OC2 [Compound 15, 1-(3-Chlorophenyl)-6-fluoro-1,3-dihydrobenzo[c][1,2]oxaborole] | 11
Clc1ccc(B2OCc3ccccc32)cc1 [Compound 17, 1-(4-Chlorophenyl)-1,3-dihydrobenzo[c][1,2]oxaborole] | 33
N#Cc1ccc(B2OCc3cc(F)ccc32)cc1 [Compound 19, 4(5-Fluorobenzo[c][1,2]oxaborol-1(3H)-yl)benzonitrile] | 14
N#Cc1cccc(B2OCc3cc(F)ccc32)c1 [Compound 20, 3-(5-Fluorobenzo[c][1,2]oxaborol-1(3H)-yl)benzonitrile] | 3.2
N#Cc1cccc(B2OCc3ccc(F)cc32)c1 [Compound 21, 3-(6-Fluorobenzo[c][1,2]oxaborol-1(3H)-yl)benzonitrile] | 7.9

Same assay, conditions: Hepatitis C virus, 72 h, read-out: Anti-Hepatitis Activity (Replicon Assay) IC50

SMILES | IC50 [µM]
Fc1ccc2c(c1)COB2c1cccc(Cl)c1 [Compound 11, 1-(3-Chlorophenyl)-5-fluoro-1,3-dihydrobenzo[c][1,2]oxaborole] | 13
Clc1cccc(B2OCc3ccccc32)c1 [Compound 12, 1-(3-Chlorophenyl)-1,3-dihydrobenzo[c][1,2]oxaborole] | 30.6
Fc1cccc(B2OCc3cc(Cl)ccc32)c1 [Compound 13, 5-Chloro-1-(3-Fluorophenyl)-1,3-dihydrobenzo[c][1,2]oxaborole] | 3.93
N#Cc1cccc(B2OCc3ccccc32)c1 [Compound 14, 3-(Benzo[c][1,2]oxaborol-1(3H)-yl)benzonitrile] | 2.86
Fc1ccc2c(c1)B(c1cccc(Cl)c1)OC2 [Compound 15, 1-(3-Chlorophenyl)-6-fluoro-1,3-dihydrobenzo[c][1,2]oxaborole] | 6.01
Clc1ccc(B2OCc3ccccc32)cc1 [Compound 17, 1-(4-Chlorophenyl)-1,3-dihydrobenzo[c][1,2]oxaborole] | 8.59
N#Cc1ccc(B2OCc3ccccc32)cc1 [Compound 18, 4-(Benzo[c][1,2]oxaborol-1(3H)-yl)benzonitrile] | 1.94
N#Cc1ccc(B2OCc3cc(F)ccc32)cc1 [Compound 19, 4(5-Fluorobenzo[c][1,2]oxaborol-1(3H)-yl)benzonitrile] | 3.73
N#Cc1cccc(B2OCc3cc(F)ccc32)c1 [Compound 20, 3-(5-Fluorobenzo[c][1,2]oxaborol-1(3H)-yl)benzonitrile] | 19.5
N#Cc1cccc(B2OCc3ccc(F)cc32)c1 [Compound 21, 3-(6-Fluorobenzo[c][1,2]oxaborol-1(3H)-yl)benzonitrile] | 5.48
